# According to PubChem BioAssay AID624417 (National Center for Advancing Translational Sciences (NCATS), 2012):
# Values joined by “and” are separate entries in the source; they are usually repeats but may differ in a detail not shown here. Equal entries are not always repeated. Among all 410,000 compounds or so, about 6,400 (1.6%) were called active. The inconclusive results got no clear call from the source; some entries with a clear call stand among them for comparison. Calls come from the whole dose curve; as a rule, active = well fitted inhibition curve with a large enough effect; inconclusive = small, poorly fitted or top-dose-only effect; inactive = no such curve, though single readings can be large or run the other way. Potencies of inconclusive entries are doubtful fits and often do not repeat.
# Biological target: Glucagon-like peptide 1 receptor (Homo sapiens) (UniProt P43220)
# UniProt P43220, sequence (P43220 whole entry, looked up): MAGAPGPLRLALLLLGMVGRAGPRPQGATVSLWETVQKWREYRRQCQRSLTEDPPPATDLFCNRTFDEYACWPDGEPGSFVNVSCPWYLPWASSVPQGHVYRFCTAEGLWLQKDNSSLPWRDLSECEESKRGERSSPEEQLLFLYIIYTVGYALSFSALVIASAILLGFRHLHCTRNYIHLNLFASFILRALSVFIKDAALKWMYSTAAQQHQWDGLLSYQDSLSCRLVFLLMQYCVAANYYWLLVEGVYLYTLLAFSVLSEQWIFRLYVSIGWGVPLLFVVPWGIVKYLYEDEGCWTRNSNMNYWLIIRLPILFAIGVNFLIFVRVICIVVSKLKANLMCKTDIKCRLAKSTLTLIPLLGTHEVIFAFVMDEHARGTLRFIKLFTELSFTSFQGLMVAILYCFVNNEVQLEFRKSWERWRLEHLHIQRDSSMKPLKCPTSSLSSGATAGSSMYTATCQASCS
# Assay: qHTS of GLP-1 Receptor Inverse Agonists (Inhibition Mode); note: nearly all actives have a fitted effect of over 55% in size
# Settings: HEK293 GLP-1R CRE-luciferase, luminescence, 24 h, GLP-1R form is constitutively active; activity change, negative = inhibition: at 38.3 µM (top of the series) unless noted
# Summary of the method: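 Inverse agonists were sought by their lowering of basal cAMP reporter luciferase output in HEK293 cells stably carrying constitutively active human GLP-1R, after 24 h compound treatment.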
# % is set by controls: 0 for no effect and ±100 for the full control effect; potency is the fitted concentration of half-maximal effect; tags give direction and shape of the fitted curve.
SMILES,Potency,"activity change, negative = inhibition"
CN(C)c1ccc(CC(=O)N2CCCCC2c2cc(C(=O)Nc3cccc(C#N)c3)no2)cc1 (centres undefined),"inconclusive: 31.6 µM [inhibitor, partial curve, poor fit]",
Cc1ccc(S(=O)(=O)N2CCOCC2)cc1NC(=O)C(c1ccc(Cl)cc1)C(C)C (centres undefined),"inconclusive: 20 µM [inhibitor, single point]",
COc1cccc(CN(C)C(=O)c2cc(-c3ccc(OC)c(OC)c3)nc3ccccc23)c1,,inactive: -29.8%
COc1ccc(CCNc2ncnc3onc(C)c23)c(OC)c1,,inactive: 8.46%
Cc1ccc(S(=O)(=O)N2CCC(C(=O)NC3CCCC3)CC2)cc1Cl,,inactive: 2.83%
CCOC(=O)c1c(/N=C/N(C)C)sc(/C=N/Nc2ccccc2)c1-c1ccccc1,"inconclusive: 10 µM [inhibitor, partial curve, poor fit]",
Cc1ccc(SC(C)C(=O)Nc2ccccc2-c2ccccc2)cc1 (centres undefined),"inconclusive: 12.6 µM [inhibitor, partial curve]",
COc1cc(OC)cc(Oc2ccc(S(=O)(=O)N3CCCCC3)cc2[N+](=O)[O-])c1,"inconclusive: 11.2 µM [inhibitor, single point]",
O=C(OCc1cc(=O)n2nc(C3CC3)sc2n1)c1ccc(NC(=O)c2ccccc2F)cc1,,inactive: -2.26%
COC(=O)C1CSC(c2ccc(Cl)cc2)N1C(=O)c1ccccc1 (centres undefined),"inconclusive: 10 µM [inhibitor, partial curve, poor fit]",
Cc1ccc(C(=O)N2CCC(C)CC2)cc1NC(=O)c1nsc2ccccc12,"inconclusive: 31.6 µM [inhibitor, single point]",
Cc1ccc(-c2cc(C(=O)N3CCN(c4ncccn4)CC3)c3cc(Br)ccc3n2)o1,"inconclusive: 28.2 µM [inhibitor, partial curve, poor fit]",
Cn1ncc(Cl)c1C(=O)N1CCC(Cc2ccccc2)CC1,"inconclusive: 22.4 µM [inhibitor, single point]",
COc1ccccc1NC(=O)c1ccc2[nH]c(C)c(C)c2c1,"inconclusive: 28.2 µM [inhibitor, single point]",
C=CCC1(CC=C)CCCN1C(=O)C1CCC(=O)N(CCc2ccccc2)C1 (centres undefined),"inconclusive: 3.55 µM [inhibitor, single point]",
O=C(O)CCC(=O)Nc1ccccc1C(=O)NC1CCCCC1,"inconclusive: 31.6 µM [inhibitor, single point]",
CCc1cccc(NC(=O)C2CCCN2C(=O)Nc2ccc(C)cc2)c1 (centres undefined),"inconclusive: 3.98 µM [inhibitor, full curve]",
CC(C)C[C@H](NC(=O)N1CCn2c1nc1ccccc12)C(=O)NC1CCCCC1,"inconclusive: 28.2 µM [inhibitor, single point]",
CCOC(=O)c1cnc2ccc(OCC)cc2c1Nc1ccc(OCc2ccccc2Cl)cc1,"inconclusive: 11.2 µM [inhibitor, single point]",
CCN(c1ccccc1)S(=O)(=O)c1ccc(NC(=O)c2nc(SC(C)C)ncc2Cl)cc1,"inconclusive: 12.6 µM [inhibitor, partial curve, poor fit]",
COc1ccc(/C=C2\SC(=S)N(N3C(=O)CCC3=O)C2=O)cc1O,,inactive: 8.74%
CN1CCN(c2ccc(S(=O)(=O)N3CCCCC3)cc2NC(=O)c2cccc([N+](=O)[O-])c2)CC1,"inconclusive: 28.2 µM [inhibitor, single point]",

SMILES,Potency,"activity change, negative = inhibition"
COc1cccc(/C=C(/C(=O)OCC(N)=O)c2ccccc2)c1,"inconclusive: 2 µM [inhibitor, full curve]",
O=C(Cc1ccc(Cl)cc1)Nc1ccc(CN2CCCCC2)cc1,"inconclusive: 10 µM [inhibitor, partial curve, poor fit]",
Cc1c(O)cccc1C(=O)N[C@@H](CSc1ccccc1)[C@H](O)CN1C[C@H]2CCCC[C@H]2C[C@H]1C(=O)NC(C)(C)C,"inconclusive: 31.6 µM [inhibitor, partial curve, poor fit] and inconclusive: 14.1 µM [inhibitor, single point]",
O=S1OCCN1c1ccccc1 (centres undefined),,inactive: 12.5%
CCCC(c1nnnn1CC(=O)OCC)N(Cc1cc2ccc(C)cc2[nH]c1=O)C1CCCC1 (centres undefined),,inactive: 11.6%
CC(C)[C@H]1COCCS(=O)(=O)N1Cc1ccccc1-c1ccc(F)cc1,"inconclusive: 10 µM [inhibitor, partial curve, poor fit]",
Clc1ccc(CN2CCc3c([nH]c4ccccc34)C2)cc1Cl,active: 3.98 µM,
CN(C(=O)CCn1c(=S)oc2ccccc21)c1ccc(F)cc1,,inactive: -25.4%
Cc1cc(C(=O)CSc2ccc(F)cc2)cc(C)c1OC(=S)N(C)C,"inconclusive: 2 µM [inhibitor, partial curve, poor fit]",
CCc1noc(C)c1C(=O)N(CCOC)c1c(N)n(CC(C)C)c(=O)[nH]c1=O,,inactive: 18.6%
CCN1CCc2c(sc(NC(=O)c3ccc(S(=O)(=O)N4CCCCCC4)cc3)c2C(=O)NC)C1,"inconclusive: 11.2 µM [inhibitor, partial curve]",
O=C(Nc1cccc(-c2ccc(F)cc2)c1)C1CCCN(C(=O)c2cscn2)C1 (centres undefined),"inconclusive: 10 µM [inhibitor, single point]",
CC(/C=C/c1ccco1)=N/NC(=O)OC(C)(C)C,,inactive: -1.81%
O=C(Cc1nnc(NC(=O)Nc2ccc(F)cc2)s1)NCc1ccccc1,"inconclusive: 3.55 µM [inhibitor, full curve, poor fit]",
CCOC(=O)C1CCCN(C(=O)CCc2nnc(-c3ccc(C(C)=O)s3)o2)C1 (centres undefined),,inactive: 4.48%
Cc1ccc(-n2nc3c(N4CCC(C(=O)NCc5cccc(F)c5)CC4)nnc(C)c3c2C)cc1,"inconclusive: 31.6 µM [inhibitor, partial curve, poor fit]",
CCn1c(Oc2cccc(Br)c2)nc2c1c(=O)n(C)c(=O)n2C,,inactive: 6.33%
COc1ccc(NCCC(O)c2ccc(Cl)cc2)cc1 (centres undefined),,inconclusive: -31.4% [inhibitor]
COc1ccc(Cl)cc1NC(=O)CN1Cc2ccccc2C1=O,,inactive: -23.7%
COc1ccc(OC)c(/C=C(\C#N)c2nc(-c3ccc(F)cc3)cs2)c1,,inactive: 16.4%
COc1ccc(Cn2c(C(=O)O)c(CNC3CCCCC3)c3ccc(C)cc32)cc1,,inactive: -5.03%
O=c1cc(-c2ccccc2[N+](=O)[O-])oc2ccccc12,"inconclusive: 4.47 µM [inhibitor, partial curve]",

SMILES,Potency,"activity change, negative = inhibition"
Cc1ccc(OCc2nc(C#N)c(N3CCCCC3)o2)cc1,"inconclusive: 28.2 µM [inhibitor, single point]",
COc1ccc(CC(=O)N(Cc2ccccc2)c2ccccc2)cc1S(=O)(=O)N1CCOCC1,"inconclusive: 12.6 µM [inhibitor, partial curve, poor fit]",
CCCOc1ccc([N+](=O)[O-])c(N)c1,,inactive: 3.78%
FC(F)(F)c1cc(-c2cccs2)nc(NCc2ccco2)n1,"inconclusive: 22.4 µM [inhibitor, single point]",
CCOc1ccc(N2C(=O)C(CC(=O)Nc3ccccc3)N(Cc3ccccn3)C2=S)cc1 (centres undefined),"inconclusive: 14.1 µM [inhibitor, single point]",
OC1(c2ccc(Cl)c(Cl)c2)C[n+]2ccccc2N1Cc1ccccc1 (centres undefined),"inconclusive: 14.1 µM [inhibitor, partial curve, poor fit]",
OC[C@@H]1CN(CCN2CCOCC2)C[C@H](n2cnc3c(NC4CC4)ncnc32)O1,"inconclusive: 28.2 µM [inhibitor, single point]",
COc1ccccc1-c1ccc(SCC(=O)NCc2ccc3c(c2)OCO3)nn1,"inconclusive: 11.2 µM [inhibitor, single point]",
NS(=O)(=O)c1cccnc1Nc1cccc(Cl)c1Cl,"inconclusive: 10 µM [inhibitor, partial curve, poor fit]",
CN(C)c1ccc(-c2nn3c(-c4ccccc4Cl)nnc3s2)cc1,"inconclusive: 1 µM [inhibitor, full curve, poor fit]",
COc1ccc(CCNC(=O)c2coc(=O)c(Br)c2)cc1,"inconclusive: 28.2 µM [inhibitor, single point]",
COc1cc(NS(=O)(=O)c2ccc(-c3cc(C)no3)cc2)cc(OC)c1,"inconclusive: 1 µM [inhibitor, full curve]",
O=C(O)/C(CC(=O)c1ccc(Cl)cc1)=N/Nc1ccc([N+](=O)[O-])cc1[N+](=O)[O-],"inconclusive: 20 µM [inhibitor, single point]",
O=C(CN1CCN(c2cccc(C(F)(F)F)c2)CC1)Nc1cccc(C(F)(F)F)c1,"inconclusive: 11.2 µM [inhibitor, partial curve, poor fit]",
COc1ccc(NC(=O)C2CC3CCC2C3)c(OC)c1 (centres undefined),"inconclusive: 28.2 µM [inhibitor, single point]",
O=C(CN1CCN(Cc2ccccc2Cl)C1=O)NCCc1ccc(Cl)cc1,"inconclusive: 7.08 µM [inhibitor, partial curve, poor fit]",
Cc1cc(CN(C)C(=O)c2cc(COc3ccc(C)c(C)c3)on2)n[nH]1,"inconclusive: 8.91 µM [inhibitor, partial curve, poor fit]",
Cc1nc(NCc2cccnc2)c2c3c(sc2n1)CC(C)CC3 (centres undefined),"inconclusive: 28.2 µM [inhibitor, single point]",
O=C(/C=C/c1cccs1)c1cc(Br)ccc1OC(=O)N1CCOCC1,"inconclusive: 7.08 µM [inhibitor, partial curve, poor fit]",
COC(=O)C1=C(C)N(Cc2ccccc2)C(=S)N[C@H]1c1ccccc1,"inconclusive: 12.6 µM [inhibitor, single point]",
